Measured values: PubChem BioAssay AID1745853 (National Center for Advancing Translational Sciences (NCATS), 2022)
The list shows a part of the results. Further columns of the screen follow, without active or inactive calls.

Key:
Assay in all cases: Primary Screen for Target Class Profiling of Small Molecule Inhibitors of Methyltransferases
[1] = biological target: Glycine N-methyltransferase (Homo sapiens) (UniProt Q14749); conditions: purified enzyme, MTase-Glo SAH luminescence; measured here: GNMT inhibition; at 40 µM; stronger effect = lower value
In short: (§1)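 Each enzyme was assayed with SAM and its substrate. SAH formation detected by MTase-Glo luminescence; single-point 40 uM screen[…].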

[2] = biological target: Guanidinoacetate N-methyltransferase (Homo sapiens) (UniProt Q14353); conditions: purified enzyme, MTase-Glo SAH luminescence; measured here: GAMT inhibition; at 40 µM; stronger effect = lower value
In short: as §1

[3] = biological target: Histamine N-methyltransferase (Homo sapiens) (UniProt P50135); conditions: purified enzyme, MTase-Glo SAH luminescence; measured here: HNMT inhibition; at 40 µM; stronger effect = lower value
In short: as §1

[4] = biological target: Nicotinamide N-methyltransferase (Homo sapiens) (UniProt P40261); conditions: purified enzyme, MTase-Glo SAH luminescence; measured here: NNMT inhibition; at 40 µM; stronger effect = lower value
In short: as §1

[5] = biological target: Phenylethanolamine N-methyltransferase (Homo sapiens) (UniProt P11086); conditions: purified enzyme, MTase-Glo SAH luminescence; measured here: PNMT inhibition; at 40 µM; stronger effect = lower value
In short: as §1
% is set by controls: 0 for no effect and ±100 for the full control effect.

| Structure (SMILES) | activity change, negative = inhibition [1] | activity change, negative = inhibition [2] | activity change, negative = inhibition [3] | activity change, negative = inhibition [4] | activity change, negative = inhibition [5] |
| --- | --- | --- | --- | --- | --- |
| CCCCNc1nc2c(S(=O)(=O)c3ccc(C)cc3)nnn2c2ccccc12 | -3.18% | 1.49% | -2.61% | 4.06% | -6.43% |
| C[C@@H]1O[C@@H](O[C@H]2[C@H](OC(=O)[C@]34CCC(C)(C)C[C@H]3C3=CCC5[C@@]6(C)C[C@H](O)[C@H](O[C@@H]7O[C@H](CO)[C@@H](O[C@H]8OC[C@](O)(CO)[C@H]8O)[C@H](O)[C@H]7O)[C@@](C)(CO)C6[C@H](O)C[C@@]5(C)[C@]3(C)C[C@H]4O)OC[C@H](O)[C@@H]2O)[C@H](O)[C@H](O)[C@H]1O[C@@H]1OC[C@@H](O)[C@H](O[C@@H]2OC[C@](O)(CO)[C@H]2O)[C@H]1O (stereo not given in full) | 0% | 2.29% | 5.97% | -7.74% | 8.23% |
| COc1cccc([C@@H]2CCN(Cc3cn[nH]c3C(=O)O)C[C@H]2O)c1 | -4.52% | -8.93% | -3.62% | -11.4% | -13.1% |
| CC(=O)c1ccc2c(c1)C(O)C(C(C)(C)O)O2 (stereo not given) | 3.04% | 3.81% | 10.2% | -8.54% | -0.228% |
| COc1ccc(-c2cc3n(n2)CC(C)(C(=O)NCc2ccccc2OC)N(c2ccc(C)c(Cl)c2)C3=O)cc1 (stereo not given) | 3.19% | 2.65% | 0.723% | 0.89% | -3.06% |
| O=C1CCN(Cc2cccc(F)c2)CCCCCCN1 | -3.4% | -6.21% | -1.14% | -1.97% | -2.21% |
| CC(C)Cn1c(=O)c2ccc(C(=O)NC3CCCC3)cc2n2c(=O)n(Cc3ccccc3Cl)nc12 | 6.08% | 1.41% | 6.01% | 3.66% | 8.16% |
| CN1C(=O)c2cc(C(=O)NCCSCc3ccco3)nn2CC1(C)C(=O)NCc1ccc(F)cc1 (stereo not given) | -6.84% | -2.02% | 3.5% | -5.11% | -3.71% |
| COC(=O)c1cc2n(n1)CC(C)(C(=O)NC1CCCCCC1)N(c1ccc(C)cc1C)C2=O (stereo not given) | 2.56% | 0% | -1.77% | 7.23% | 3.37% |
| Cc1nnc(-c2cc(-c3cnn(C)c3)ccn2)n1-c1ccccc1 | -3.95% | -1.41% | -16.7% | -2.27% | -1.75% |
| Cc1cccc(N2C(=O)c3cc4occc4n3CC2(C)C(=O)NC2CCCCCCC2)c1C (stereo not given) | -1.92% | 5.07% | 3.48% | 1.79% | -1.04% |
| CN1C(=O)c2cc(C(=O)N3CCOCC3)nn2CC1(C)C(=O)NC1CCCCCC1 (stereo not given) | 0.613% | 0.742% | 3.31% | 8.61% | 2.9% |
| CC1(C(=O)NC2CCCCCC2)Cn2c(nc3ccccc32)C(=O)N1Cc1ccccc1Cl (stereo not given) | -4.56% | -1.91% | -0.538% | -8.05% | -10.6% |
| CCn1c(=O)n(CC)c2cc(S(=O)(=O)N3CCN(c4cccc(C)c4)C(C)C3)ccc21 (stereo not given) | 3.39% | 0% | 0.592% | -2.17% | 0.138% |
| COc1ccccc1CNC(=O)C1(C)Cn2nc(-c3ccccc3)cc2C(=O)N1Cc1ccc(Cl)cc1 (stereo not given) | -0.974% | 3.3% | -0.104% | 1.54% | -1.44% |
| CCc1cccc(N2C(=O)c3cc(-c4ccccc4)nn3CC2(C)C(=O)NCCCOC)c1 (stereo not given) | -3.21% | 5.22% | -2.29% | -3.95% | -8.9% |
| CC1=C[C@H]2[C@@H](CC1=O)[C@H](C)C[C@H](O)[C@H]2C(C)C | -6.74% | -22.6% | 2.59% | -25.3% | -8.9% |

| Structure (SMILES) | activity change, negative = inhibition [1] | activity change, negative = inhibition [2] | activity change, negative = inhibition [3] | activity change, negative = inhibition [4] | activity change, negative = inhibition [5] |
| --- | --- | --- | --- | --- | --- |
| CC(C)NC(=O)c1ccc2c(=O)n(Cc3ccccc3)c3nn(CC(=O)c4ccccc4)c(=O)n3c2c1 | 2.64% | 1.39% | 5.92% | 2.96% | 6.06% |
| CCOC(=O)c1cc2n(n1)CC(C)(C(=O)NCc1ccccc1)N(Cc1ccccc1OC)C2=O (stereo not given) | -0.48% | 7.67% | 0.464% | -8.04% | -3.08% |
| COc1ccccc1CN1C(=O)c2cc3sccc3n2CC1(C)C(=O)NC1CCCCCCC1 (stereo not given) | -0.667% | 0% | 4.23% | 1.56% | -1.62% |
| CC(C)CCNC(=O)c1ccc2c(c1)nc(Nc1n[nH]c3ccc(-c4ccccc4OC(F)(F)F)cc13)n2C1CCC(O)CC1 (stereo not given) | 5.28% | -20% | 4.03% | -48% | -6.17% |
| CCCn1c(=O)c2ccc(C(=O)NC3CCCCC3)cc2n2c(=O)n(Cc3cccc(OC)c3)nc12 | 5.03% | 0% | 9.53% | -0.224% | 5.01% |
| C=CCCC(=O)N1c2cccc3c2[C@@H](C[C@H]1C(N)=O)CN(c1ccccc1)C3=O | -3.29% | -4.17% | -0.241% | -7.25% | -3.75% |
| C=C1/C(=C/C=C2\CCC[C@]3(C)[C@@H]([C@H](C)/C=C/C(=O)C4CC4)CC[C@@H]23)C[C@@H](O)C[C@@H]1O | -17.9% | -22.6% | 0.24% | -30.9% | -8.5% |
| CCOc1ccc(C2c3cccn3-c3sc4c(c3CN2C(=O)Nc2cccc(C)c2)CCCC4)cc1 (stereo not given) | -0.287% | 2.85% | 7.65% | 2.42% | 9.48% |
| CCOC(=O)c1cc2n(n1)CC(C)(C(=O)NC1CCCC1)N(c1ccccc1OC)C2=O (stereo not given) | 6.03% | 0% | 4.63% | 6.94% | 3.5% |
| CCOC(=O)c1cc2n(n1)CC(C)(C(=O)NCCC(C)C)N(c1ccc(C)c(C)c1)C2=O (stereo not given) | 4.33% | 1.73% | 4.05% | 11.7% | 1.8% |
| COc1cc2c(cc1NS(=O)(=O)c1ccc3c(c1)n(C)c(=O)n3C)n(C)c(=O)n2C | -1.57% | 0.161% | 10.9% | -1.64% | 2.21% |
| COc1ccc2c(c1)c(NC(C)=O)c1n2CC(C)(C(=O)NC2CCCC2)N(Cc2ccccc2)C1=O (stereo not given) | 3.64% | 1.4% | 7.92% | 10.4% | 3.78% |
| OCCN(CCO)c1nc(N2CCCCC2)c2nc(N(CCO)CCO)nc(N3CCCCC3)c2n1 | -14.5% | 2.95% | -3.32% | -9.05% | 2.49% |
| CC1(C(=O)N2CCC(c3ccccc3)CC2)CCc2cnc(Nc3ccncc3)nc21 (stereo not given) | -12.5% | -6.65% | -18.8% | -27.5% | -11.2% |
| O=C(NC1CC1)c1ccc2c(=O)nc3c(-c4ccc(Cl)cc4)n[nH]n3c2c1 | -0.514% | 0.483% | 8.36% | 10.8% | 4.48% |
| C=Cc1ccc(Cn2nc3n(CC(C)C)c(=O)c4ccccc4n3c2=O)cc1 | 0.372% | 0% | 4.6% | -4.26% | 0.674% |
| Cc1ccc(C)c(CSc2nnc3n(CC(C)C)c(=O)c4ccc(C(=O)NC(C)C)cc4n23)c1 | -0.118% | -0.784% | 5.14% | -3.91% | -2.29% |
